Results from the supplement of paper PMC4604168 (melanoma cell lines).
The other results are listed elsewhere or left out. Repeats are few or missing, and single values can be far off.

Columns and labels:
Experiment in all cases: cell count relative to DMSO control; melanoma cells; higher = more viable cells
Settings in all cases: library dose: standard library concentration; 72 h
SkMel28 = system: SkMel28
SkMel2 = system: SkMel2
SkMel30 = system: SkMel30
SkMel5 = system: SkMel5
UACC257 = system: UACC257
UACC62 = system: UACC62
WM115 = system: WM115
WM1716 = system: WM1716
WM1745 = system: WM1745
WM3526 = system: WM3526
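Note: cells treated in 1,536-well plates, then fixed and DAPI-stained, with nuclei counted from automated high-throughput microscope images.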

SMILES	cell count (SkMel28) [%]	cell count (SkMel2) [%]	cell count (SkMel30) [%]	cell count (SkMel5) [%]	cell count (UACC257) [%]	cell count (UACC62) [%]	cell count (WM115) [%]	cell count (WM1716) [%]	cell count (WM1745) [%]	cell count (WM3526) [%]
C=C(c1ccc(C(=O)O)cc1)c1cc2c(cc1C)C(C)(C)CCC2(C)C [Bexarotene] + CO[C@@H]1[C@H](N(C)C(=O)c2ccccc2)C[C@H]2O[C@]1(C)n1c3ccccc3c3c4c(c5c6ccccc6n2c5c31)C(=O)NC4 [Midostaurin] (first compound 10 µM, partner dose 0.4 µM)	85.6	49.3	76.2	43.7	66.5	62.5	31.4	37.2	52.3	62.5
CS(=O)(=O)c1ccc(C(=O)Nc2ccc(Cl)c(-c3ccccn3)c2)c(Cl)c1 [vismodegib] + CN(C)S(=O)(=O)c1ccc2c(c1)/C(=C/c1cc3c([nH]1)CCCC3)C(=O)N2 [SU6656] (first compound 5 µM, partner dose 2 µM)	52.7	132	91.9	79.2	92.7	89.6	59.2	70.6	47.5	113
CS(=O)(=O)c1ccc(C(=O)Nc2ccc(Cl)c(-c3ccccn3)c2)c(Cl)c1 [vismodegib] + COCC[n+]1c2c(n(Cc3cnccn3)c1C)C(=O)c1ccccc1C2=O [YM155] (first compound 5 µM, partner dose 0.002 µM)	60.2	68.1	73.5	35.1	23.7	53.3	68.9	62.5	83.9	44.3
NC1(c2ccc(-c3nc4ccn5c(=O)[nH]nc5c4cc3-c3ccccc3)cc2)CCC1 + Cn1cncc1[C@@](N)(c1ccc(Cl)cc1)c1ccc2c(c1)c(-c1cccc(Cl)c1)cc(=O)n2C [tipifarnib] (first compound 2 µM, partner dose 0.05 µM)	38.2	59.6	95.6	47.2	107	72.3	58.3	64.7	83.8	63.5
CS(=O)(=O)c1ccc(C(=O)Nc2ccc(Cl)c(-c3ccccn3)c2)c(Cl)c1 [vismodegib] + CN(NC(=O)CC(=O)NN(C)C(=S)c1ccccc1)C(=S)c1ccccc1 [STA4783] (first compound 5 µM, partner dose 0.03 µM)	35.7	77.6	89	70.1	114	31.1	27.8	72.4	34	103
CN(c1ncccc1CNc1nc(Nc2ccc3c(c2)CC(=O)N3)ncc1C(F)(F)F)S(C)(=O)=O + COc1ccc(Cl)c(Nc2nc3ccccc3nc2NS(=O)(=O)c2cccc(NC(=O)C(C)(C)N)c2)c1 [XL147] (first compound 0.4 µM, partner dose 4 µM)	61.6	77.3	107	73.1	76.5	74.7	68.1	72.6	53.6	88.1
NC1(c2ccc(-c3nc4ccn5c(=O)[nH]nc5c4cc3-c3ccccc3)cc2)CCC1 + C[C@]1(c2nc3c(C(N)=O)cccc3[nH]2)CCCN1 [Veliparib] (first compound 2 µM, partner dose 7 µM)	61.4	71.5	87.8	43.5	76.8	71.6	63.8	65.3	82.7	59.7
CN(c1ncccc1CNc1nc(Nc2ccc3c(c2)CC(=O)N3)ncc1C(F)(F)F)S(C)(=O)=O + O=C(O)c1ccc(-c2c[nH]c3ncc(-c4ccccc4)cc23)cc1C1CCCC1 [GSK650394] (first compound 0.4 µM, partner dose 0.8 µM)	69	65.6	111	87.1	66.5	71.4	106	88.4	74.5	105
CS(=O)(=O)c1ccc(C(=O)Nc2ccc(Cl)c(-c3ccccn3)c2)c(Cl)c1 [vismodegib] + O=C(O)c1ccc2c(c1)nc(Nc1cccc(Cl)c1)c1ccncc12 [CX4945] (first compound 5 µM, partner dose 2 µM)	77.1	83.9	65.7	87.9	97.9	75	103	99.5	91.9	60.7
CN(c1ncccc1CNc1nc(Nc2ccc3c(c2)CC(=O)N3)ncc1C(F)(F)F)S(C)(=O)=O + Nc1ccn([C@@H]2O[C@H](CO)[C@@H](O)C2(F)F)c(=O)n1 [gemcitabine] (first compound 0.4 µM, partner dose 0.002 µM)	77.3	69	91.4	66.5	87.3	64.9	65.1	78.3	49.1	101
CCCS(=O)(=O)Nc1ccc(F)c(C(=O)c2c[nH]c3ncc(Cl)cc23)c1F + Cc1nc(Nc2ncc(C(=O)Nc3c(C)cccc3Cl)s2)cc(N2CCN(CCO)CC2)n1 [dasatanib] (first compound 0.4 µM, partner dose 0.02 µM)	65.7	102	104	80.8	90.4	43.3	58.1	50.8	46.8	63.5
CN(c1ncccc1CNc1nc(Nc2ccc3c(c2)CC(=O)N3)ncc1C(F)(F)F)S(C)(=O)=O + NC(=O)Nc1cc(-c2cccc(F)c2)sc1C(=O)N[C@H]1CCCNC1 [AZD7762] (first compound 0.4 µM, partner dose 0.1 µM)	82.8	121	157	81.2	89.3	75.1	78.8	79.3	66	91.4
CN(c1ncccc1CNc1nc(Nc2ccc3c(c2)CC(=O)N3)ncc1C(F)(F)F)S(C)(=O)=O + CNC(=O)c1cc(Oc2ccc(NC(=O)Nc3ccc(Cl)c(C(F)(F)F)c3)cc2)ccn1 [sorafenib] (first compound 0.4 µM, partner dose 2 µM)	75.3	85.4	90.3	77.6	75.3	94.5	78.8	74.6	75.8	92.1
C=C(c1ccc(C(=O)O)cc1)c1cc2c(cc1C)C(C)(C)CCC2(C)C [Bexarotene] + O=C(O)C(=O)Nc1sc2c(c1C(=O)O)CCNC2 [TCS401] (first compound 10 µM, partner dose 8.33333 µM)	78.8	96.1	137	71.9	76.7	78.1	93.1	93.4	–	78.1
CN(c1ncccc1CNc1nc(Nc2ccc3c(c2)CC(=O)N3)ncc1C(F)(F)F)S(C)(=O)=O + N#Cc1c(O)c2c(-c3ccc(-c4ccccc4O)cc3)csc2[nH]c1=O [A769662] (first compound 0.4 µM, partner dose 10 µM)	87.9	109	116	102	98.7	104	102	103	–	119
CS(=O)(=O)c1ccc(C(=O)Nc2ccc(Cl)c(-c3ccccn3)c2)c(Cl)c1 [vismodegib] + CCN(CC)CCNC(=O)c1c(C)[nH]c(/C=C2\C(=O)Nc3ccc(F)cc32)c1C [sunitinib] (first compound 5 µM, partner dose 2 µM)	46.5	64.2	49.9	56.5	99.8	57.5	70.8	117	57	57.8
CN(c1ncccc1CNc1nc(Nc2ccc3c(c2)CC(=O)N3)ncc1C(F)(F)F)S(C)(=O)=O + COc1cc2ncnc(Nc3ccc(Oc4ccccc4)cc3)c2cc1OC [SrcI1] (first compound 0.4 µM, partner dose 10 µM)	75.5	73.9	111	52.5	71.5	69.4	65.9	66	–	68.7
CS(=O)(=O)c1ccc(C(=O)Nc2ccc(Cl)c(-c3ccccn3)c2)c(Cl)c1 [vismodegib] + O=S(=O)(c1ccccc1)N(CC(F)(F)F)c1ccc(C(O)(C(F)(F)F)C(F)(F)F)cc1 [T0901317] (first compound 5 µM, partner dose 7 µM)	107	93.3	118	64	91.8	76	83.7	86	–	83.8
CS(=O)(=O)c1ccc(C(=O)Nc2ccc(Cl)c(-c3ccccn3)c2)c(Cl)c1 [vismodegib] + COc1ccc(COc2ccc(Cc3cnc(N)nc3N)cc2OC)cc1 [GW2580] (first compound 5 µM, partner dose 5 µM)	142	104	90.7	112	92.7	79.7	102	99.9	–	94.2
NC1(c2ccc(-c3nc4ccn5c(=O)[nH]nc5c4cc3-c3ccccc3)cc2)CCC1 + CS(=O)(=O)CCNCc1ccc(-c2ccc3ncnc(Nc4ccc(OCc5cccc(F)c5)c(Cl)c4)c3c2)o1 [lapatinib] (first compound 2 µM, partner dose 4 µM)	48.8	53.7	65	37.9	86.2	38	64	50.2	18.5	42.7
CCCS(=O)(=O)Nc1ccc(F)c(C(=O)c2c[nH]c3ncc(Cl)cc23)c1F + C[C@@H]1CCN(C(=O)CC#N)C[C@@H]1N(C)c1ncnc2[nH]ccc12 [CP690550] (first compound 0.4 µM, partner dose 5 µM)	40.1	86.4	95.9	63	76.6	72.6	56.3	64.6	52.3	48.3
NC1(c2ccc(-c3nc4ccn5c(=O)[nH]nc5c4cc3-c3ccccc3)cc2)CCC1 + COc1cc(N2CCC(N3CCN(C)CC3)CC2)ccc1Nc1ncc(Cl)c(Nc2ccccc2S(=O)(=O)C(C)C)n1 [NVP-TAE684] (first compound 2 µM, partner dose 0.4 µM)	25.9	52.1	81.3	43.6	76.1	49	35.4	75.2	–	60.9
